Source: PubChem BioAssay AID485344 (National Center for Advancing Translational Sciences (NCATS), 2010)
The whole screen tested about 340,000 compounds, of which about 6,900 (2%) were called active. Rule as the data show it: active = inhibition above about 30%; inactive = below that, where a call was filed. The list shows a part of the results, in another mix than the full data. The source gives no active or inactive call for entries shown without one.

What follows are compounds tested against D(2) dopamine receptor (Homo sapiens) (UniProt P14416) (assay: HTS Assay for Allosteric Antagonists of the Human D2 Dopamine Receptor: Primary Screen for Antagonists). Conditions: HEK293 TREx D2 cells, calcium flux, dopamine EC80; at 10 µM; stronger effect = higher value.
UniProt P14416, sequence (P14416 whole entry, looked up): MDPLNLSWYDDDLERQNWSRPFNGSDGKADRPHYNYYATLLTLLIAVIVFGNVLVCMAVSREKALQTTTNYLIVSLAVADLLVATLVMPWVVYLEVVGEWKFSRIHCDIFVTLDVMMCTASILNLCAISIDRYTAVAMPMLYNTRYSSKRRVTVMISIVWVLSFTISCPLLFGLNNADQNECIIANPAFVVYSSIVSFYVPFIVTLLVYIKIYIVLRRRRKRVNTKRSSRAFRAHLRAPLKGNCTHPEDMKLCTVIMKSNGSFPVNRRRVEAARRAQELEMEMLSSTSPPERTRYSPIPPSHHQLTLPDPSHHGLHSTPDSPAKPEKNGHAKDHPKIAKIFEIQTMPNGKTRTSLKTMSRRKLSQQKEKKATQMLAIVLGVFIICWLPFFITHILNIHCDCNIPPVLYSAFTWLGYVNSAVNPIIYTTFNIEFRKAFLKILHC
How it was run: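 Compounds are added to dye-loaded, induced HEK293 T-REx cells coupled to calcium release via D2; after a 3 min kinetic read an EC80 dopamine stimulus is given and fluorescence is recorded for 3 more min.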
Also: 0% is about no effect.

| SMILES | inhibition |
| --- | --- |
| CCc1cccc(NS(=O)(=O)c2c(C)[nH]c(=O)[nH]c2=O)c1 | 7.32% |
| Cc1c(Cl)cccc1-n1ncc(C(=O)N2CCN(c3ncccn3)CC2)c1C1CCN(C(=O)OC(C)(C)C)CC1 | -0.593% |
| Cc1ccc(S(=O)(=O)N(CC(=O)Nc2cccnc2)c2cccc([N+](=O)[O-])c2)cc1 | active: 50.2% |
| Cc1ccc(NC(=O)C(Cc2ccccc2)NS(=O)(=O)c2ccc3c(c2)c(=O)n(C)c(=O)n3C)c(C)c1 (stereo unspecified) | 3.4% |
| CCN(CC)c1ccc(NC(=O)c2cccn2-c2nnc(N3CCCCC3)s2)c(C)c1 | 6.11% |
| COc1cc2c(cc1OC)CN(C(=O)CSc1ccc(F)cc1)CC2 | active: 61.3% |
| CC(C)OC(=O)c1cccc(NC(=O)Cn2nnc3sc4c(c3c2=O)CCCC4)c1 | 0.111% |
| Cc1ccc(-n2cc(-c3ccccc3)c3c(N4CCCCC4)ncnc32)cc1 | -1.59% |
| Cc1cccc(Nc2nnc(-c3ccc(C)c(S(=O)(=O)N4CCCCC4)c3)c3ccccc23)c1 | -0.675% |
| Cc1ccc(-c2cc(C(=O)Nc3ccc(SC(F)F)cc3)no2)cc1F | 24.8% |
| CCCOc1ccc(CNC(=O)CCCn2ncn3c(cc4sc(CC)cc43)c2=O)cc1 | 3.26% |
| COc1ccccc1CNC(=O)c1c[nH]c2ccc(S(=O)(=O)Nc3cc(C)cc(C)c3)cc2c1=O | -13.2% |
| CCCOc1ccc(NC(=O)CC2C(=O)N(c3ccccc3)C(=O)N2Cc2ccco2)cc1 (stereo unspecified) | -11.6% |
| CCNS(=O)(=O)c1ccc(NC(=O)CSc2nc(-c3ccco3)cc(C(F)(F)F)n2)cc1 | -1.67% |
| COc1cccc(NC(=O)CCC(=O)N2Cc3ccccc3Oc3ncccc32)c1 | -7.4% |
| Cc1ccc(-n2c3c(cc(C(=O)Nc4ccccc4C(N)=O)c2=O)C(=O)CC(C)(C)C3)cc1 | 21.9% |
| CCOc1ccccc1NC(=O)c1c(NC(=O)COc2ccccc2)sc2c1CCCC2 | 2.41% |
| Cc1cc(C)c(NC(=O)CSc2ccc(-c3ccccn3)nn2)c(C)c1 | 1.14% |
| CN(C)CCNC(=O)CN1C(=O)COc2ccc(S(=O)(=O)N3CCCC3)cc21 | -4.47% |
| COc1ccc(C2=Nc3ccccc3NC(c3cccs3)=N2)cc1 | 16.5% |
| Cc1ccc2nc(SCC(=O)NCC3CCCO3)c(C#N)cc2c1 (stereo unspecified) | active: 40.7% |
| O=C1CC(c2ccccc2)Sc2ccccc2N1Cc1ccc(F)cc1 (stereo unspecified) | -2% |
| CCOc1ccccc1/C=c1\sc2nc(-c3ccco3)nn2c1=O | active: 33.5% |
| COc1ccc(NC(=O)CSc2nccn2Cc2ccc3c(c2)OCO3)cc1 | 1.99% |

| SMILES | inhibition |
| --- | --- |
| COc1ccc(C)cc1NC(=O)C(=O)NCC(c1cccnc1)N1CCc2ccccc21 (stereo unspecified) | 8.93% |
| COCCc1nn2c(=O)cc(COC(=O)C(c3ccccc3)c3ccccc3)nc2s1 | 3.56% |
| CCc1ccc(NC(=O)CC2C(=O)N(c3cccc(C)c3)C(=O)N2Cc2ccc(F)cc2)cc1 (stereo unspecified) | 1.56% |
| Cc1cc(NC(=O)n2ncc3c(C)cccc32)ccc1Br | 6.34% |
| COc1cccc(CCNC(=O)c2c(O)nc3c(C)cccn3c2=O)c1 | 1.53% |
| CC(Sc1nnc2ccc3ccccc3n12)C(=O)Nc1ccc(Cl)cc1 (stereo unspecified) | -3.78% |
| COc1ccccc1NC(=O)Cn1c(SCC(=O)Nc2ccc(F)cc2)nc2ccccc21 | -11.1% |
| Cc1nc2ccn(Cc3ccccc3)c(=O)c2cc1C(=O)N1CCN(c2ccc(F)cc2)CC1 | -2.06% |
| Cc1ccc(NC(=O)Cc2ncc(C(F)(F)F)cc2Cl)cc1Cl | active: 43.9% |
| CN(CCN1CCc2ccccc2C1)Cc1nc(-c2ccc3c(c2)OCO3)no1 | active: 43.6% |
| CCc1ccc(NC(=O)CC2C(=O)N(c3cccc(OC)c3)C(=O)N2Cc2ccc(F)cc2)cc1 (stereo unspecified) | 5.59% |
| COc1cc(NC(=O)CCc2c(C)nn(-c3ccc(N4CCCCC4)nn3)c2C)cc(OC)c1OC | -0.115% |
| O=C(C1CCN(S(=O)(=O)c2ccccc2)CC1)N1CCN(c2ccccc2F)CC1 | active: 32.1% |
| COc1ccc(C)cc1NC(=O)c1cc(S(=O)(=O)N2CCCCC2)c[nH]1 | 9.78% |
| Cc1cc(C)cc(NC(=O)CCCc2nc(-c3ccco3)no2)c1 | 17.7% |
| CCN(CC)CCn1c(NCc2cccc(OC)c2)nc2ccccc21 | active: 44.4% |
| Cc1cc(-n2c(C)nc3ccccc3c2=O)ccc1NC(=O)c1ccccc1[N+](=O)[O-] | -23% |
| COc1ccc(-c2cc3nc(C4CCN(C(=O)OC(C)(C)C)CC4)c(C(=O)Nc4cc(C)cc(C)c4)cn3n2)cc1 | 6.87% |
| CCC(Sc1nnc2c3ccccc3n(CC)c2n1)C(=O)Nc1nnc(C(C)C)s1 (stereo unspecified) | 2.46% |
| Cn1c(=O)cc(SCC(=O)N2CCN(c3ccccc3F)CC2)c2ccccc21 | -6.42% |
| CCOc1ccc(NC(=O)CC2C(=O)N(c3cccc(C)c3)C(=O)N2Cc2cccs2)cc1 (stereo unspecified) | -21.2% |
| CCCN1CCN(CCCNC(=O)c2ccc3nc(Cc4ccccc4)oc3c2)CC1 | -9.51% |
| CCCCN1CC(c2nc3ccccc3n2CCCCOc2cccc(C)c2C)CC1=O (stereo unspecified) | -16.4% |
| CCOc1ccc(CN(CCc2ccc3c(c2)OCO3)Cc2cc(OC)c(OC)cc2OC)cc1 | 15.1% |

| SMILES | inhibition |
| --- | --- |
| COC(=O)c1c(N)n(-c2ccc(OC)c(OC)c2)c2nc3ccccc3nc12 | -12.5% |
| Cc1ccc(CNC(=O)Cn2c(=O)n(-c3ccc(C)cc3)c(=O)c3c2c2cc(C)ccc2n3C)cc1 | -1.05% |
| COC(=O)c1cc2occc2n1CC(=O)Nc1ccc(N(C)C)cc1 | -0.876% |
| N#Cc1nc(-c2ccc(COc3ccccc3)o2)oc1N1CCCCC1 | -0.971% |
| Cc1ccc(CNC(=O)C(=O)NCC(c2ccco2)S(=O)(=O)c2ccccc2)cc1 (stereo unspecified) | -3.12% |
| Cc1ccccc1NC(=O)Cn1c(=O)n(Cc2ccccc2)c(=O)c2c(C)c(C)sc21 | 2.49% |
| N#CC1=C2SCN(C3CCCCC3)CN2C(=O)CC1c1ccc(Cl)cc1 (stereo unspecified) | 12.3% |
| O=C(NCc1ccccc1F)c1ccc(CSc2nc3cccnc3n2Cc2ccccc2)cc1 | -8.89% |
| Cc1nn2c(=O)cc(COC(=O)c3ccccc3NC(=O)COc3ccccc3C)nc2s1 | -17.7% |
| CN1C(=O)C(N=Nc2ccccc2C(=O)O)N(C)C1=S (stereo unspecified) | active: 40.1% |
| COc1cc(/C=C/C(=O)OCC(=O)NC(=O)NC(C)C)ccc1OCC#N | active: 46.3% |
| Cc1ccc(SCc2nc(-c3ccc(C(=O)NCCc4ccc(Cl)cc4)cc3)oc2C)cc1 | 10.7% |
| CCOC(=O)c1cc(OC(=O)c2ccccc2Cl)n(-c2ccccc2)n1 | 9.25% |
| CCC(=O)N1c2ccc(S(=O)(=O)N3CCN(CC)CC3)cc2CC1C (stereo unspecified) | active: 38.6% |
| COc1ccc(OC)c(NC(=O)[C@H](CSCc2ccccc2)N2Cc3ccccc3C2=O)c1 | -25.9% |
| COC(=O)c1cc2sc(Cl)cc2n1CC(=O)Nc1cc(C)cc(C)c1 | -15.4% |
| COc1ccc(OC)c(CNc2nc3ccc(C)cc3n3nnnc23)c1 | -0.21% |
| COc1cc(Cl)c(C)cc1NC(=O)CC1SC(N2CCOCC2)=NC1=O (stereo unspecified) | active: 99.2% |
| Cn1cc(S(=O)(=O)N2CCN(c3ccccc3F)CC2)c(=O)n(C)c1=O | active: 31.6% |
| CNC(=S)N/N=C/c1ccccc1OCC(=O)O | active: 31.4% |
| CC1CCN(c2nc3ccc(C(=O)N4CCN(c5ccccc5)CC4)cc3s2)CC1 | -8.19% |
| CCOc1ccc(N(CC)C(=O)c2cc3c(s2)-c2ccccc2OC3)cc1 | 5.98% |
| CCC(=O)N1CCc2cc(CNC(=O)c3ccc(F)cc3)ccc21 | 10.8% |
| COc1cccc(N2CCN(C(=O)c3nn(C)c4c3CSc3ccc(C)cc3-4)CC2)c1 | -8.85% |

| SMILES | inhibition |
| --- | --- |
| N=C1C(c2nc3ccccc3s2)=C(O)CN1NC(=O)c1ccc([N+](=O)[O-])cc1 | active: 42.3% |
| c1ccc(N2CCN(Cc3cn4cccnc4n3)CC2)cc1 | active: 48.5% |
| COc1cc(C2C(=O)N(C3CCCCC3)CC(=O)N2C2CCCCC2)ccc1OC(C)C (stereo unspecified) | 13.2% |
| CCSc1nc(-c2ccccc2F)nc2c1Cc1c(CO)cnc(C)c1O2 | -2.52% |
| COc1ccc(CCNC(=O)C(C)n2c(=O)cc(-c3ccccc3)c3c(C)nn(C)c32)cc1OC (stereo unspecified) | 1.13% |
| Cc1cc(N2CCCCC2)nc2ccc(NC(=O)CCC(=O)N3CCN(c4ccccc4)CC3)cc12 | -15.9% |
| O=C(CSCc1ccc(F)cc1)N1CCc2c([nH]c3ccccc23)C1c1ccc(Cl)cc1 (stereo unspecified) | 7.91% |
| COc1cc(C(=O)Nc2ccccc2-c2nc(-c3ccc(C)cc3)no2)cc(OC)c1OC | 11.3% |
| COc1ccc(NC(=O)CN2C(=O)c3cccnc3Sc3ccccc32)cc1OC | 10.1% |
| COc1cc(NC(=O)COC(=O)Cc2ccsc2)cc(OC)c1 | active: 30.5% |
| Cc1cccc(N2CCN(C(=O)c3ccc(Nc4nc5ccccc5n5nnnc45)cc3)CC2)c1C | -2.91% |
| CC1=C(C(=O)Nc2cc(Cl)ccc2C)C(c2cccs2)n2ncnc2N1 (stereo unspecified) | -21.7% |
| COc1ccccc1OCCC(=O)OCC(=O)Nc1ccc(Br)cc1 | active: 90.7% |
| CCC(C(=O)Nc1cc(F)ccc1F)n1nc(C)c2c(C)n(-c3ccc(C)cc3)nc2c1=O (stereo unspecified) | -4.27% |
| CCc1ccccc1NC(=O)c1noc2c1CC(C(C)(C)C)CC2 (stereo unspecified) | 2.01% |
| Cc1cccc(NC(=O)C(=O)NCCc2csc(-c3ccc(F)cc3)n2)c1C | 4.24% |
| Cc1cc(C)c2c(=O)cc(CSc3n[nH]c(C)n3)[nH]c2c1 | 9.88% |
| COc1ccc(CCC(=O)NC2CC(=O)N(c3ccc(OC)cc3)C2)cc1 (stereo unspecified) | 8.44% |
| Cc1cccc(OCC(=O)Nc2nnc(S(=O)(=O)N3CCc4ccccc43)s2)c1 | 15.8% |
| O=C(Nc1ccc(Cl)cc1)C(NS(=O)(=O)c1cccs1)c1ccccc1 (stereo unspecified) | 15.2% |
| COCc1nnc(NC(C)=O)s1 | active: 32.4% |
| CCOC(=O)C1CCCN(Cc2cn3c(-c4cccc(Br)c4)nnc3s2)C1 (stereo unspecified) | 8.09% |
| Cc1nc(-c2ccc(C)c(N3CCN(C(=O)Nc4cccc(Cl)c4C)CC3)c2)no1 | 8.64% |
| Cc1ccc(-n2c(Cc3ccccc3)nnc2SCc2nc(-c3cccs3)no2)cc1C | -5.21% |
